Here are results for 72 sequences from article PMC10726135.

This is one part of the list. At the low end of the ranking, values are background and their order means little. Measured with an extract: partners may take part in the binding.

This assay has as its target T1, HNF4alpha8 (COS-7 nuclear extract) (UniProt P41235-5).
T1 sequence: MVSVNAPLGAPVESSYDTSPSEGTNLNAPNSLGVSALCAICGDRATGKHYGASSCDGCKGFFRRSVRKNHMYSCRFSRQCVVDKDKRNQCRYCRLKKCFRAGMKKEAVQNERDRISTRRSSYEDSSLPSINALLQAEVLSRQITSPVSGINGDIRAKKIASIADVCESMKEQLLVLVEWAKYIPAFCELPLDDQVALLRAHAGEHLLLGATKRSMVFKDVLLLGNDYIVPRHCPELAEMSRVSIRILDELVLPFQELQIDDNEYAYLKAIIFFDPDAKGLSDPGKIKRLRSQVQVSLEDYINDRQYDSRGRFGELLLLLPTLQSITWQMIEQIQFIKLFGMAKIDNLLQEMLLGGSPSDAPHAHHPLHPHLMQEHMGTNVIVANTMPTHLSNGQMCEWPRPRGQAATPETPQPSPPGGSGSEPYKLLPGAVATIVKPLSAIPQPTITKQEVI
Briefly: protein-binding microarray. As to conditions: COS-7 nuclear extract on double-stranded Agilent 4x180k PBM; binding buffer, salt, pH and temperature not given; high values mean tight binding; double strand, one strand shown; sequences stand for … in …GCCTAGGGAGATTAGAGTATCGGTCGA
On to CTGCTCAAAGGGGAAAGAGGGGGAAGAGAT, for which the binding signal (log2 normalized intensity) was -1.34.
For CAGAGCCTGCCCCCGGGGCCGCCTTGGAAA the value was 1.04; for GATGTGGAATGAAACCAGTTTCAAAACCTG, -1.45.
Take GGCAGTCGGGAAATTCCAGCAGGAATTGAT: the binding signal (log2 normalized intensity) was -1.3.
The value for CTCCCTTTTCAACAATGTTATCTTTTCAAG was 1.33; that for GTCATAGCTTTATCTCTCCCCCACCACTGC was 4.61.
The value for AAACCTTCCAAAGTTCAACCTCATTATCTT was 2.7.
For TTCCATACCAAAGACTGAGCAGCTGGAGGG the value was -1.38; for ATTAAGAGGCTACAACCAGACTTGGAGAGA, -1.37; for CTAACCATAGGAGGCTGGTCTAAGTCCACA, 2.76.
Turning to ACTTTGGAATGGCAGTGCTTGTCCAAGATG, the binding signal (log2 normalized intensity) was determined as 0.498.
As for GGGTTAGGGTTAGGGTTACGGTTAGGGTTA, the binding signal (log2 normalized intensity) worked out at 1.59.
The value for CTGCAGAGGCTGGTTCACACCCCACGTACA was 1.76; that for GAGGAAAACTGGGCAAAGGTCAGGATCTCA was 5.3.
Take CAAAGTCCACCTCAACCTCCCCCTGGGGAC: the binding signal (log2 normalized intensity) came out at 3.8.
As for GATTCCAGCTCTCGGATCCTCTGGGCTGGC, the binding signal (log2 normalized intensity) is -1.25.
As for ACCCCTAATGAATGGCAAATTAAACAGCAT, the binding signal (log2 normalized intensity) was -1.32.
In the case of AGGAGCGAGTCAAGGGTCAATCCTCTCTTT, the binding signal (log2 normalized intensity) came to 3.09.
For CCATTGTAGATTCAATAATACAAGAGGCTT the value was -1.45.
For the sequence AGGCTAGAATGGAAACCAATAACTGCTTCT, the binding signal (log2 normalized intensity) is -1.53.
For GAGAGTACACAGAAGTTAATTTCAAAACAA the value was -1.38.
For the sequence TGTGTGCCTGAGAATGAGGGGCAGGCTTAG, the binding signal (log2 normalized intensity) is -1.37.
The value for GTTTTCTGTCTTCATCCTGAGAGGGCTCAA was -0.86; that for AGAAAAATATGTGGACTTCAAAGGTACTTA was 0.953.
For ACAGACATAAACACAGACACACATGAGCTA the value was -1.33; for ATTGACCACCTCCTCTGAAGCTAGGACAAG, 0.0374.
The value for GCCCAAAGGTCAGTCTGCAGCTAATAAACT was 2.64; that for ATAAGATGTGTAAAACACAAATCTCCACAA was -1.41; that for AAGAGGCTCTTCAATGCATTCCTGAAGCCT was -1.31.
For the sequence CCCTTTGGTCTGGAACACAGAGGGAAATGC, the binding signal (log2 normalized intensity) is -0.923.
As to CAGTGCTGCCATTTGAGGAGTGTTGAGATT, the binding signal (log2 normalized intensity) is 0.359.
In the case of TCACAGTGCCTCTGCAAGTTGGCCTTACTA, the binding signal (log2 normalized intensity) was -0.0691.
As for CCCCCAGTGGAATGTGCCCTTTGACCTCTC, the binding signal (log2 normalized intensity) came out at 10.3.
The value for ACGGTGTCCCTGGCCAATCCCAGGGTCAGA was 2.07.
As for GGACTTTGCTCTGCTCATTTTTCCCCTGAC, the binding signal (log2 normalized intensity) was determined as 5.14.
The value for GCTAGAGGCCCTGCATTAAACAAGAGAGAG was -1.32; that for CACCTTTTTTGGCCTTTACCCCTTGAGTTT was 4.54; that for AAAAGGGACAAAGGTGAGTGCAACCTTCTC was 2.49.
The value for TAAATGCAGTTTGTCAAGTGCCCGGATAAA was 1.23.
The value for TGGTATGTTTGGATTGGGCAATGACCTGGA was 2.7; that for CATTCACATGACCTTTGTCCGTTCCTGCCT was 6.63.
With GCAGGGAGAGTTGCACCCAGGCCGTTGGAC, the binding signal (log2 normalized intensity) was found to be 0.534.
The value for AATCCCATGCTGATGGCAAACACCTGGCCA was -1.36; that for GCTGTCTACTCTGGGGGTCAGCAATGGTAA was 2.36.
For CTGGTGCCTCCTTATCTCCCCAACTGTAAA the value was 3.35; for CACAAAAGCTGCTGCCAAGCGTCAGTCATA, -1.35; for ATCTGAAGGAAATGGACAACGGAAAGACAG, -1.27.
The value for CTTGCATTTCTTCAGATGCAACACAGGGGG was -1.39; that for ACGCTTGACTGGCTCCACCACTTTGCCTAT was -1.34.
On to GGACAGGCCAAATCCAGTAAGGCACGGAGT, for which the binding signal (log2 normalized intensity) was -1.26.
GGGCCAGGAGCAGGAGCAGAAGCAGGCCTC: the binding signal (log2 normalized intensity) is -1.23.
The value for GAGTTTAGGCATTCTTAGACACAGTCTGAG was -1.42; that for CCTGAGGTGTGAGAGGGCAAAGGTCACAGC was 8.73.
Turning to GTTCAACCCTGAATGTGTGCTGGCCTGGTT, the binding signal (log2 normalized intensity) was found to be 1.65.
For TGGCTCCAAGGCTGAAGGTCTCGAGGCCTC the value was -1.42; for AGCCTTTTGTCCCAAGGAGAATTTCACAAA, 0.341.
For AGAGGTCGCGAGAGAACTGAAAAAGGGGAC, the binding signal (log2 normalized intensity) is -1.32.
In the case of AGGTGCAGAGAGGGGCAGGGTTCACATAGC, the binding signal (log2 normalized intensity) came to 2.08.
As for AAACTCCAAAGTCCATGCTATTAAGCACTA, the binding signal (log2 normalized intensity) is 4.07.
The value for TGAAGTCCAACCCTCCGTTTCTCTGGGCCT was -1.23; that for CAGAAAGCAAGAGCACAAGAACAAAAACTG was -1.25.
As for CATAAAGGGTTGAAGAAAGATCACACAAAT, the binding signal (log2 normalized intensity) was -1.32.
Regarding CAGAGGGCTGCTTGCAGGAGGCCGGGCGCG, the binding signal (log2 normalized intensity) is -1.4.
The value for ACATGTGCAAGGGCAGCTCCGTTTACCTAG was -1.1.
Regarding ATGAGCAAACAGAACTGTTAACTTTGTACT, the binding signal (log2 normalized intensity) worked out at 2.72.
As for CATTTATAGATAAGCACACTAAGGCTAAAG, the binding signal (log2 normalized intensity) was -1.41.
For TTTTTCTTTTTTTCCCCCTCACTGAATATG, the binding signal (log2 normalized intensity) came to 4.38.
The value for TGGGACTGATAACTTAGGCCCATATTCCTT was -1.31; that for TGGCTAAGACAGGGGCTATTTCTGACCTTT was 7.32; that for CCACCCTATTGATGCAAGGACAATGTCTAG was 1.38.
As to TTTTAAAAGCCCTCAAATACTCTGAGTAAA, the binding signal (log2 normalized intensity) was found to be 0.0993.
For CAGCTGACCAACAGAGAAGGCCCTGAACTC the value was -1.33.
